# PubChem BioAssay AID686979 (National Center for Advancing Translational Sciences (NCATS), 2013)
# Out of some 420,000 compounds screened, about 50,000 (12%) were called active. Inconclusive means that the source gave no clear call. Such entries were picked first, then a sample of the others. The call rests on the fitted dose curve; in most records, active means well fitted inhibition curve with a large enough effect; inconclusive means small, poorly fitted or top-dose-only effect; inactive means flat fitted curve, though single readings scatter. No potency is given beside an inconclusive call; the fits are too rough.
# Test: qHTS for Inhibitors of human tyrosyl-DNA phosphodiesterase 1 (TDP1): qHTS in cells in presence of CPT; further: nearly all actives have a fitted effect of over 55% in size
# Details: chicken DT40 Tdp1-/-;hTDP1 cells + 20 nM CPT, ATP luminescence, 48 h; activity change, negative = growth inhibition: at 46.2 µM (top of the series) unless noted
# In short: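 Cell growth measured by CellTiter-Glo luminescence after a minimum 48 h, 37 C compound exposure with 20 nM CPT in Tdp1-knockout DT40 cells stably expressing hTDP1, seeded 400/well; qHTS titration format.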
# On the % scale 0 is the no-effect control and ±100 the full control effect; potency means the concentration at half of the fitted maximal effect; tags describe the fitted curve by direction and shape.
Structure (SMILES),Potency,"activity change, negative = growth inhibition"
Cc1nc2sc(C(N)=O)c(N)c2c(C)c1CC(=O)c1ccccc1,"inconclusive [inhibitor, partial curve]",
NNC(=O)Cn1nc(-c2ccccc2)c2ccccc2c1=O,,inactive: -3.26%
COc1ccc(CC(N)c2csc(Nc3cc(NCCCO)ncn3)n2)cc1 (stereo not given),"inconclusive [inhibitor, single point]",
CCc1nc2nc(C)c(NS(=O)(=O)c3ccc(Cl)s3)c(=O)n2[nH]1,,inactive: 10%
CCCC(=O)Nc1ccc(C(=O)n2nnc3ccccc32)cc1,"inconclusive [inhibitor, single point]",
COc1ccc(-c2nc3ccc(Cl)cn3c2Cc2cccc(Cl)c2)cc1OC,"inconclusive [inhibitor, single point]",
COc1ccc(NC(=O)c2oc3ccc(S(=O)(=O)N4CCCCC4)cc3c2C)cc1Cl,active: 9.2 µM,
COc1cccc(-c2noc(CCC(=O)Nc3cccnc3)n2)c1,"inconclusive [inhibitor, single point]",
COc1ccc(NC(=O)c2cc(C(C)=O)n3ccccc23)cc1,,inactive: -60.8%
N#CC1=C(N)SC(N)=C(C#N)C1c1cccc(Oc2ccccc2)c1,"inconclusive [inhibitor, single point]",
O=C(CSC(=S)N1CCSCC1)c1ccccc1,"inconclusive [inhibitor, single point]",
Cc1ccc2c(c1)C(=O)C(=O)N2Cc1ccc(OCCC(C)C)cc1,active: 0.411 µM,
COc1ccc(C)cc1N(CC(=O)NCCSCc1cccc(Cl)c1)S(C)(=O)=O,active: 16.4 µM,
Cc1ccc2nc(NC(=O)c3nc(SCc4ccccc4F)ncc3Cl)sc2c1,,inactive: 4.39%
COc1ccc(C(=O)N/N=C(\N)c2cc3ccccc3oc2=O)cc1,"inconclusive [inhibitor, single point]",
CC(=O)c1ccc(NC(=O)c2cccs2)cc1,"inconclusive [inhibitor, single point]",
CCC(=O)N/C(N)=N/c1nc2ccccc2o1,"inconclusive [inhibitor, single point]",
CSc1ncc(Cl)c(C(=O)Nc2cc(C(F)(F)F)ccc2Cl)n1,,inactive: 2.66%
COc1ccccc1/C=N/NC(=O)CC(=O)NCc1cccnc1,,inactive: 29.1%
O=C(NCc1ccco1)c1cccc2c1C(=O)c1ccc(N3CCC(Cc4ccccc4)CC3)cc1S2(=O)=O,active: 13 µM,
COc1cc2c(=O)n(Cc3ccco3)c(=O)n(CC(=O)Nc3ccc(F)cc3)c2cc1OC,"inconclusive [inhibitor, single point]",
CC(=O)OCC1(C)CN(c2ccccc2)NC1=O (stereo not given),active: 20.6 µM,
Cc1nc(SCC(=O)Nc2ccccc2Cl)c2c(C)c(C)sc2n1,"inconclusive [inhibitor, partial curve]",
O=C(O)c1ccc(NCc2nc3ccccc3n2CCOc2ccccc2Cl)cc1,"inconclusive [inhibitor, single point]",
CCC1NC(=O)c2ccccc2N1c1cccc(Cl)c1 (stereo not given),"inconclusive [inhibitor, single point]",

Structure (SMILES),Potency,"activity change, negative = growth inhibition"
COc1ccc(CNC(=O)CC23CC4CC(CC(C4)C2)C3)cc1OC,"inconclusive [inhibitor, single point]",
CCC/C(O)=C1\C(=O)CC(C)(C)CC1=Nc1ccc(OC)cc1OC,active: 2.91 µM,
O=C(O)c1cccc(-n2cccc2/C=C2\NC(=O)N(Cc3ccc(F)cc3)C2=O)c1,"inconclusive [inhibitor, single point]",
O=c1cc(-c2ccccc2O)oc2c(O)c(O)ccc12,active: 23.7 µM,
COc1ccc(C(=O)C2CCCN(Cc3ccc4nonc4c3)C2)c(C)c1 (stereo not given),"inconclusive [inhibitor, single point]",
Cc1nc(-c2ccc(Cl)cc2)sc1CCNC(=O)C(=O)Nc1ccc2c(c1)OCCO2,"inconclusive [inhibitor, partial curve]",
COc1cc(/C=C/C(=O)c2ccc(C)c([N+](=O)[O-])c2)cc(OC)c1O,active: 16.4 µM,
O=C(NCCc1ccccn1)C1CC12CCN(C(=O)c1ccccc1Cl)CC2 (stereo not given),,inactive: 2.73%
CC1CN(CC(O)COCc2ccc3c(c2)OCO3)CC(C)O1 (stereo not given),"inconclusive [inhibitor, partial curve, poor fit]",
COc1ccc(NC(=O)C[C@H]2C(=O)N(C3CCCCC3)C[C@@H]2CSC)cc1,,inactive: -12.4%
Cn1cccc1/C=C1\Cc2ccccc2C1=O,,inactive: -2.63%
COc1cccc(CNC(=O)c2cccc(Br)c2)c1,"inconclusive [inhibitor, single point]",
O=C(Nc1cccc2cccnc12)c1ccc(Br)cc1Br,,inactive: 3.79%
C=CCc1c(C)[nH]c2c(OC)cccc2c1=S,active: 13 µM,
COc1ccc(OCc2nn[nH]n2)cc1,,inactive: 2.67%
CN(C)C(=O)CCC(=O)N1CCCC(C(=O)c2ccc(C(F)(F)F)cc2)C1 (stereo not given),"inconclusive [inhibitor, single point]",
COc1ccc(N(C)C(=O)c2nn(-c3ccc(C)cc3)c(=O)n(C)c2=O)c(OC)c1,,inactive: 0.151%
CCCC(=O)NCCc1cc2cc(C)c(C)cc2[nH]c1=O,"inconclusive [inhibitor, partial curve, poor fit]",
CCOC(=O)c1c(NC(=O)CSc2nnc(-c3ccncc3)n2Cc2ccco2)sc(C(C)=O)c1C,,inactive: -13.4%
COc1ccccc1Cn1c(=S)[nH]c2cc(C(=O)N3CCCC(C)C3)ccc2c1=O (stereo not given),"inconclusive [inhibitor, single point]",
O=C(NCc1ccccn1)c1ccc2c(c1)N(Cc1ccccc1)CCS2,"inconclusive [inhibitor, single point]",
Cc1cc(C)n(CCNC(=O)C2CCC(=O)N(CCc3cccc(F)c3)C2)n1 (stereo not given),,inactive: -3.19%
CN1OC[C@@H]2CN(Cc3cc(Cl)cc(Cl)c3)[C@H](c3cccc(Br)c3)C[C@@H]21,"inconclusive [inhibitor, single point]",
COc1ccc(NC(=O)c2ccc(Cl)nc2)cc1S(=O)(=O)N1CCOCC1,active: 16.4 µM,
O=C(NCCCN1CCCC1=O)c1cc(S(=O)(=O)N2CCOCC2)ccc1Cl,,inactive: 2.75%

Structure (SMILES),Potency,"activity change, negative = growth inhibition"
Cc1[nH]c2ccccc2c1N=Nc1ccc(F)cc1,"inconclusive [inhibitor, single point]",
COc1ccc(C)cc1NC(=O)COC(=O)c1ccc(OCc2ccc(Cl)cc2Cl)c(OC)c1,active: 18.4 µM,
COc1ccc(CNC(=O)CC(C)n2nc(C)cc2C)cc1 (stereo not given),,inactive: -14.4%
COc1cc(C(c2nnnn2C(C)(C)C)N2CCN(c3nc4ccccc4s3)CC2)ccc1O (stereo not given),active: 14.6 µM,
O=c1c(N2CCN(c3ccccc3)CC2)csc2ccc(Cl)cc12,"inconclusive [inhibitor, single point]",
CCOC(=O)C1Cn2c(nc3c(c2=O)C(C)(CC)Cc2ccccc2-3)S1 (stereo not given),"inconclusive [inhibitor, partial curve, poor fit]",
CC(C)Oc1ccc(C(=O)N2CCN(c3nc4c(F)cc(F)cc4s3)CC2)cc1,,inactive: -26.7%
COc1ccc(-c2[nH]ncc2CN2CCN(c3ccc(F)cc3)CC2)cc1,,inactive: -18.7%
Cc1ccc(S(=O)(=O)NCCCNC(=O)OCc2ccccc2)cc1,"inconclusive [inhibitor, single point]",
COC(=O)C[C@@H]1C[C@@H]2c3cc(NC(=O)Cc4ccncc4)ccc3O[C@@H]2[C@@H](CO)O1,,inactive: -5.49%
CCn1nc(C)cc1C(=O)N1CCCC(C(=O)c2ccc(Oc3ccccc3)cc2)C1 (stereo not given),"inconclusive [inhibitor, single point]",
O=C(CCSCc1cccc(Cl)c1)NCc1ccccc1Cl,"inconclusive [inhibitor, single point]",
O=C(CSc1ncc2c(n1)-c1cc(Cl)ccc1N(Cc1ccccc1)S2(=O)=O)Nc1ccc(F)cc1F,active: 18.4 µM,
Cc1nnc(NC(=O)CCN2C(=O)/C(=C\c3ccccc3)SC2=S)s1,,inconclusive: -3.87% [inhibitor]
CC1C/C(=C/c2ccccn2)C(=O)/C(=C/c2ccccn2)C1 (stereo not given),active: 0.517 µM,
CN1CCN(C(=S)NC(=O)c2ccc(C(C)(C)C)cc2)CC1,"inconclusive [inhibitor, single point]",
COc1ccc(/C=C(/NC(=O)c2ccc(Br)cc2)C(=O)N2CCOCC2)cc1,,inactive: 15%
CCOCCn1ccc2c(OCC(=O)NCc3ccc(F)cc3)cccc2c1=O,,inactive: -22%
CCOc1ccc(N2C(=O)c3ccccc3C2=O)cc1,,inactive: 2.77%
O=C(COc1ccc(Br)cc1)NNC(=S)NCc1ccccc1,"inconclusive [inhibitor, single point]",
O=S(=O)(c1cccc(F)c1)N1CCN(C(=S)NCC2CCCO2)CC1 (stereo not given),,inactive: -13.9%
Cc1ccc(CCC(=O)Nc2ccc(Br)cc2)o1,"inconclusive [inhibitor, partial curve, poor fit]",
CCCCn1cc(S(=O)(=O)c2ccccc2)c(=O)c2cc(F)c(N3CCN(CCC)CC3)cc21,"inconclusive [inhibitor, single point]",
CCN1c2ccccc2-n2cccc2C12CCN(C(=O)Nc1ccccc1Br)CC2,"inconclusive [inhibitor, single point]",
COc1ccc(CNC(=O)C[C@H]2C[C@H](C(=O)N3CCOCC3)[C@@]3(CCC4CCCC4)c4[nH]c5cc(CCC(=O)N(C)C)ccc5c4CCN3C2=O)cc1OC,"inconclusive [inhibitor, single point]",
